The structures appear in SMILES notation. The whole screen tested about 52,000 compounds, of which about 4,300 (8.3%) were called active. Rule as the data show it: active = survival mostly below about 52% (no sharp cut-off); inactive = mostly above about 56%. Some of the results follow.

The source of these data is PubChem BioAssay AID463173 (ICCB-Longwood Screening Facility, Harvard Medical School, 2010).

The subject of the assay is DeltatarO mutant. Description: S. aureus survival, RN4220 and DeltatarO strains – OD600, teichoic acid synthesis inhibitors, primary screen (AID 463173). Particulars: S. aureus RN4220 wild type/DeltatarO growth, OD600, 18 h, hits give low values, screened at 18.75 µg/mL (by protocol).
On to `CCOc1ccc(C(=O)Nc2cccc(C(=O)OCc3cc(=O)n4nc(C5CC5)sc4n3)c2)cc1`, for which the survival was inactive: 83%. In the case of `CCOC(=O)c1ccccc1NC(=O)CSc1nc(=O)[nH]c2c1CCC2` it was inactive: 78%; in that of `COc1ccc(CCNC(=O)c2c(O)nc3ccccn3c2=O)cc1`, inactive: 81%; in that of `Cc1ccccc1CN1C(=O)C2(c3ccccc31)N(c1ccccc1)C(=O)CS2(=O)=O` (centres undefined), inactive: 124%. Consider `CCOc1ccc(NC(=O)CC2C(=O)N(c3ccc(C)cc3)C(=O)N2CCC2=CCCCC2)cc1` (centres undefined), for which the survival was inactive: 71%. The same measure for `Nc1nonc1-c1nc2ccccc2n1Cc1cccc(Cl)c1`: inactive: 80%; for `O=C(c1cccn2c(=O)c3cc(Cl)ccc3nc12)N1CCN(c2ccccc2F)CC1`: inactive: 76%; for `Cc1ccc(CN(C(=O)c2ccccc2F)c2ccccn2)o1`: inactive: 75%. In the case of `CC(=O)Nc1ccc(S(=O)(=O)N2CCC(c3nnnn3-c3ccccc3)CC2)cc1` it was inactive: 76%. In the case of `CCOc1ccc(-n2nc(CO)c(C(=O)NCCCc3ccccc3)n2)cc1`, the survival is inactive: 89%.

As for `COc1ccc(OCC(=O)Nc2nnc3n2CCS3)cc1`, the survival is inactive: 84%. The same measure for `CCOC(=O)N1CCN(Cc2nc3cc(NC(=O)c4ccc(OC)cc4)ccc3n2C(C)C)CC1`: inactive: 80%. The same measure for `C=Cc1ccc(Cn2c(C)c(CNCCc3ccccc3C)c(C(=O)O)c2C)cc1`: inactive: 53%; for `O=C(COc1ccc(Cl)cc1)Nc1ccc(C(=O)OCc2cc(=O)n3ccsc3n2)cc1`: inactive: 88%; for `FC(F)(F)Oc1ccc2c(c1)NC(c1ccncc1)=NC(c1cccs1)=N2`: inactive: 91%. The same measure for `Cc1ccn2c(=O)c(C(=O)NCCCN3CCCCC3C)c(O)nc2c1` (centres undefined): inactive: 86%. On to `COc1ccc2oc(=O)c(C(=O)Nc3ccc(C(=O)O)cc3)cc2c1`, for which the survival was inactive: 136%. In the case of `C=CCc1cccc2cc(C(=O)Nc3ccc(F)cc3)c(=O)oc12` it was active: 44%. In the case of `COc1cccc(CSc2nc3n(n2)C(c2cccc(F)c2)C(C(=O)Nc2ccccc2C)=C(C)N3)c1` (centres undefined) it was inactive: 86%; in that of `Cc1cccc(N2CCN(C(=O)c3ccc(CS(=O)c4cccc(Cl)c4)o3)CC2)c1C` (centres undefined), active: 51%. The same measure for `Cc1ccc(O)c(NC(=O)c2cc(-c3ccc4c(c3)OCO4)on2)c1`: inactive: 71%.

`CCCCOc1ccc(C(C)NC(=O)c2cccc(Nc3nc4ccccc4n4nnnc34)c2)cc1` (centres undefined): the survival was inactive: 67%.

Take `CCOc1ccc(CCNC(=O)CSc2n[nH]c(-c3ccccc3)n2)cc1OCC`: the survival was inactive: 86%. The same measure for `Cc1c(CC(=O)N2CCCCC2)c(=O)oc2c(C)c3occ(C(C)(C)C)c3cc12`: inactive: 60%; for `Cc1ccc(CN2CCSc3ccc(C(=O)NCCc4ccccc4)cc32)cc1`: inactive: 81%; for `COc1ccc(Cl)cc1NC(=O)C1CCN(c2nnc(C)c3c(C)n(-c4ccccc4)nc23)CC1`: inactive: 55%. In the case of `O=c1n(Cc2cccc(F)c2)c2ccccc2c2nc(-c3ccccc3)nn12` it was active: 33%; in that of `CN(C)C=NC(=O)c1cc2c(n(-c3ccccc3)c1=O)CC(C)(C)CC2=O`, inactive: 46%. The same measure for `CCOC(=O)C1=NNC2C(=O)N(CC)C(=O)C12` (centres undefined): inactive: 84%; for `Cc1ccc(NC(=O)C(=O)NCC(c2cccnc2)N2CCOCC2)cc1Cl` (centres undefined): inactive: 92%. With `CC(=O)NC1(c2ccccc2)CCN(C(=O)c2cccs2)CC1`, the survival was inactive: 94%. In the case of `COc1ccc(CNC(=O)CCCN2C(=O)CSc3c2c(C)nn3-c2ccccc2)c(OC)c1` it was inactive: 76%; in that of `COCCNC(=O)CCC(=O)N1Cc2cccc(OC)c2Oc2ncccc21`, inactive: 89%. For `COc1ccc(Cl)cc1NC(=O)CCS(=O)(=O)c1cccc2nonc12`, the survival was inactive: 146%. In the case of `COc1cccc(CNC(=O)Cc2csc3ccccc23)c1OC` it was inactive: 86%; in that of `COc1ccc(NC(=O)C(=O)NCC2(c3ccc(OC)c(OC)c3)CCCC2)cc1`, inactive: 77%; in that of `CCc1ccc(NC(=O)Cn2ccn(Cc3ccccc3OC)c(=O)c2=O)cc1`, active: 46%. In the case of `CCn1cc(S(=O)(=O)c2cccc(Cl)c2)c(=O)c2cc(F)c(N3CCC(C)CC3)cc21` it was inactive: 90%; in that of `Cc1ccc(NC(=O)c2c(C)oc3ncnc(N4CCCCC4)c23)cc1Cl`, inactive: 73%; in that of `Cc1ccc(-n2nc(C)c3c(C)cc(=O)n(CC(=O)N4CCCc5ccccc54)c32)cc1`, inactive: 80%. Regarding `COc1cccc(-c2ccc3c(N)c(C(=O)c4ccc(Br)cc4)sc3n2)c1`, the survival was active: 28%. As for `O=C(Cc1ccc(Cl)cc1)Nc1nnc2n1CCS2`, the survival was inactive: 77%.

Regarding `COc1ccc(C)cc1NC(=O)CCc1c(C)nn(-c2ccc(N3CCOCC3)nn2)c1C`, the survival is inactive: 67%.

As to `N/C(=N/c1nc2ccccc2o1)NC(=O)C(Cc1ccccc1)N1C(=O)c2ccccc2C1=O` (centres undefined), the survival is inactive: 90%. `COc1ccc(CCC(=O)NC2CC(=O)N(c3cccc(F)c3)C2)cc1` (centres undefined): the survival is inactive: 113%. Consider `CN(CC(=O)O)C(=O)c1ccco1`, for which the survival was inactive: 85%. On to `COc1ccc(NC(=O)CCCSc2nc(-c3ccco3)cc(C(F)(F)F)n2)c(OC)c1`, for which the survival is active: 16%. The same measure for `CCCOC(=O)c1c(NC(=O)C2c3ccccc3Oc3ccccc32)sc2c1CCCC2`: inactive: 77%; for `CCOc1ccc(N(CC)C(=O)C2CCN(S(=O)(=O)c3cccc4nonc34)CC2)cc1`: inactive: 100%; for `COc1cc2c(cc1OC)CN(C(=O)CSc1nc(C)cc(C)c1C#N)CC2`: inactive: 63%. In the case of `CCCC(=O)Nc1nnc(SCc2cc(=O)c3ccc(C)cc3[nH]2)s1` it was inactive: 122%; in that of `O=C(CSc1ncc(S(=O)(=O)c2ccc(Cl)cc2)c(=O)[nH]1)Nc1ccc2c(c1)OCCO2`, inactive: 75%; in that of `COc1cccc(C(=O)NCC(=O)OCc2cc(=O)n3nc(C)sc3n2)c1`, inactive: 116%. Consider `CCOc1ccc(-c2c(C#N)c(N)nc3sc(C(=O)OC)c(N)c23)cc1`, for which the survival is inactive: 79%.

Take `CCCCNC(=O)C1=CC(c2ccc3c(c2)OCO3)=NS(=O)(=O)N1C`: the survival was inactive: 85%. In the case of `O=C1c2[nH]nc(-c3ccccc3)c2C(c2ccccc2)N1c1cccc(C(F)(F)F)c1` (centres undefined) it was active: 20%. In the case of `CCCc1cc(=O)n2[nH]c(NCc3ccc(CC)cc3)nc2n1` it was inactive: 79%; in that of `O=C1SC(Nc2ccc(Cl)cc2)C(=O)N1Cc1ccccc1` (centres undefined), inactive: 107%; in that of `Cc1c(Cl)cccc1Nc1nc(N)nc(CSc2nc3ccccc3s2)n1`, active: 24%. Take `Cc1ccc(NC(=O)CCCn2c3ccccc3c(=O)c3cc(C)ccc32)c(Br)c1`: the survival is active: 38%. In the case of `CC1CCN(S(=O)(=O)c2ccc3c(c2)N(CC(=O)NCCc2ccc(Cl)cc2)C(=O)CO3)CC1` it was inactive: 87%; in that of `CCOC(=O)c1c(C)[nH]c(C)c1S(=O)(=O)N1CCC(C(=O)N2CCN(c3cc(C)ccc3C)CC2)CC1`, inactive: 70%; in that of `O=C1CS(=O)(=O)C2(C(=O)N(Cc3ccc(F)cc3)c3ccccc32)N1c1cccc(C(F)(F)F)c1` (centres undefined), inactive: 124%. The same measure for `O=C(CSc1nnc(-c2ccc(Cl)cc2)o1)N1CCc2ccccc21`: inactive: 96%; for `Cc1ccc(Cn2cnc3c(oc4ccccc43)c2=O)cc1`: inactive: 89%; for `Cc1cc(C)cc(NC(=O)C(NS(=O)(=O)c2cccc3nsnc23)c2ccccc2)c1` (centres undefined): inactive: 80%. The same measure for `CCOC(=O)N1CCN(C(=O)c2ccc3c(c2)N(Cc2cc(C)ccc2C)C(=O)c2ccccc2S3=O)CC1` (centres undefined): inactive: 64%. As for `COc1ccc(CCNC(=O)CCc2cn(Cc3ccc(C)cc3)c3ccccc23)cc1OC`, the survival was inactive: 62%. In the case of `CCCCOc1nnc(-c2ccc(OCC)cc2)c2ccccc12` it was active: -12%. The same measure for `CCOc1ccc(N(C)C(=O)C2CCN(S(=O)(=O)c3ccc4c(c3)CCCN4C(C)=O)CC2)cc1`: inactive: 73%. The same measure for `CCC(Sc1nc2ccncc2[nH]1)C(=O)Nc1ccc(F)cc1` (centres undefined): inactive: 128%. Consider `O=S(=O)(c1ccccc1)c1nnn2c1nc(Nc1ccccc1)c1cc(Cl)ccc12`, for which the survival is inactive: 95%. Turning to `Cc1ccc(Cl)cc1N1CCN(C(=O)Cn2ncc3c([nH]c4ccccc43)c2=O)CC1`, the survival was inactive: 102%. In the case of `COc1cccc(-n2c(=O)c3sc4ccccc4c3n(CC(=O)Nc3ccccc3OC)c2=O)c1` it was inactive: 65%; in that of `Cc1ccc(-n2nc(CO)c(C(=O)NCCc3ccccc3)n2)cc1`, inactive: 86%. The same measure for `COc1cccc(C(C(=O)NC2CCCCC2)N(C(=O)c2ccccn2)c2cccnc2)c1` (centres undefined): inactive: 81%.

For `Cn1ccnc1SCC(=O)N1c2ccccc2-c2c(ssc2=S)C1(C)C`, the survival was inactive: 99%. For `Cc1ccc2c(c1)c1c3n2CCN(C(=O)CN2CCN(C(=O)c4ccco4)CC2)C3CCC1` (centres undefined), the survival is inactive: 56%.

Turning to `COc1ccccc1-c1cc(C(F)(F)F)nc(S(=O)(=O)CCCC(=O)Nc2cc(C)ccc2O)n1`, the survival was active: 47%. With `Cc1ccc2c(=O)c(C(=O)c3ccc(F)cc3)cn(CC(=O)NC3CCCCC3)c2n1`, the survival is inactive: 55%.

As to `CCOc1ccc(CNC(=O)c2cc3c(=O)n(Cc4cccs4)ccc3nc2C)cc1`, the survival is inactive: 112%. In the case of `COC(=O)c1cc(S(=O)(=O)N2CCN(c3cccc(C)c3)C(C)C2)c[nH]1` (centres undefined) it was inactive: 77%; in that of `CC(=O)Nc1ccc(S(=O)(=O)Nc2ccc(-c3cn4c(C)csc4n3)cc2)cc1`, inactive: 89%. With `CCc1c(C)sc(NC(=O)c2cc(-c3ccc(OC)cc3)on2)c1C#N`, the survival is active: 50%.

On to `CCCCn1c2ccccc2c2nnc(SCC(=O)Nc3ccc(NC(C)=O)cc3)nc21`, for which the survival was inactive: 69%.

In the case of `Cc1oc2ccc(O)c(CN(C)Cc3ccccc3)c2c1C(=O)Nc1cccc(Cl)c1C`, the survival is active: 11%. On to `O=C(Nc1onc2c1CCCC2)c1ccc(Cl)cc1`, for which the survival is inactive: 77%. In the case of `CCc1nc2nc(C)cc(Nc3ccc(Br)cc3F)n2n1` it was inactive: 128%; in that of `CCCCn1c(=N)n(CC(O)COc2ccccc2)c2ccccc21` (centres undefined), inactive: 88%.
